Screen size: about 310,000 compounds; about 2,200 (0.71%) showed an effect of 50% or more. Effects have a minus sign here. The list shows a part of the results.
Molecular target: human ether-à-go-go-related gene (hERG) potassium channel (human, UniProt Q12809)
Experiment: primary screen, population patch clamp on CHO cells stably expressing hERG

Sequence of human ether-à-go-go-related gene (hERG) potassium channel (Q12809 whole entry, looked up): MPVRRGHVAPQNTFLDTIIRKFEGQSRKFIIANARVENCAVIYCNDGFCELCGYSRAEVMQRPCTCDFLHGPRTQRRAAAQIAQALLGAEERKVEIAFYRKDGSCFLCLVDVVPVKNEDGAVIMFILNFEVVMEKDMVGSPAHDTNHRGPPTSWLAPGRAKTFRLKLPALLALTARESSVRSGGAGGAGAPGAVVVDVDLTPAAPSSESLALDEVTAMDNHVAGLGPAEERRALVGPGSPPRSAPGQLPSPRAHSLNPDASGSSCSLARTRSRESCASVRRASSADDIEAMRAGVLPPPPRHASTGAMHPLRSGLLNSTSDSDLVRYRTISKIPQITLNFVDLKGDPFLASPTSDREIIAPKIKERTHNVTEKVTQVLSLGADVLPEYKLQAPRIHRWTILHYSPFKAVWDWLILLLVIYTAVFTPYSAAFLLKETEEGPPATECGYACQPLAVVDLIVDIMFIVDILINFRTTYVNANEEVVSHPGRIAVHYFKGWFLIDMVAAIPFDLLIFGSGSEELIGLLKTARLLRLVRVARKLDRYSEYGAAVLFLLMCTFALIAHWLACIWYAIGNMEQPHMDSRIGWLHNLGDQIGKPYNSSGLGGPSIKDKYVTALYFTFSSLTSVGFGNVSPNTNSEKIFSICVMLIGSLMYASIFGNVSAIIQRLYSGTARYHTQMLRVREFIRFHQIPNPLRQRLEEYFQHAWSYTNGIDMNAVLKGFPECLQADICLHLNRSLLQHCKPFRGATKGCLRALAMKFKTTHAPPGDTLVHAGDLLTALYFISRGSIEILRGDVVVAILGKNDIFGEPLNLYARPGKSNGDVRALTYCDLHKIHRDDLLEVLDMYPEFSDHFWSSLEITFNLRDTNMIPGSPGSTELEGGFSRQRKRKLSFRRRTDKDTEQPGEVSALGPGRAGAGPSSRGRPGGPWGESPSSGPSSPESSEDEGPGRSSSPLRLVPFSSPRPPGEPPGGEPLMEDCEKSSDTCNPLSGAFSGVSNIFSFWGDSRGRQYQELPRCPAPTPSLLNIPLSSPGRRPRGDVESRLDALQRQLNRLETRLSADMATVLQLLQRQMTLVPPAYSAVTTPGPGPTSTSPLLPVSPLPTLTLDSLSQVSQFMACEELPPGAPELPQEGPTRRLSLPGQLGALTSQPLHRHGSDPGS

Structure (SMILES)	hERG current change (%, negative = inhibition) at 1uM [%]
Cc1cc(C)nc(Sc2ccc3nnc(C(F)(F)C(F)(F)C(F)(F)F)n3n2)n1	11
c1ccc(-c2nnc(CN3CCCc4ccccc43)o2)cc1	-6.52
NC(=O)c1ccccc1NC(=O)Nc1cccc2ccccc12	18.4
CCN1CCN(CC(=O)NC2CCCC2)C(=O)C1=O	6.06
Cc1cc(C)c(-c2cc(C(=O)Nc3cc(C)ccc3C)[nH]n2)c(O)c1	8.58
Nc1c(N(C(=O)Nc2ccc(Cl)c(Cl)c2)C2CCCC2)c(=O)[nH]c(=O)n1Cc1ccccc1	11.5
COc1ccc(N2CCN(CCNC(=O)Nc3cccc(C)c3C)CC2)cc1	13.6
Cc1c([N+](=O)[O-])c(N)nn1C	16.1
O=C(N/N=C/c1cccc([N+](=O)[O-])c1)c1cc2ccccc2o1	27.7
Cc1ccc(OCCOc2ccc(Br)cc2/C=N\NC(N)=O)cc1	10.4
COc1cccc(NC(=O)/C=C/c2ccc([N+](=O)[O-])cc2)c1	2.96
CC(NC(=O)c1ccccc1NS(C)(=O)=O)c1ccccc1 (centres unmarked)	4.52
CSCCC(NC(N)=O)C(=O)N(C)CC(=O)Nc1cc(C)ccc1C (centres unmarked)	7.13
CC(C)(C)OC(=O)COc1cc(F)ccc1[N+](=O)[O-]	8.04
COc1cccc(NC=C2C(=O)OC3(CCCCC3)OC2=O)c1	3.18
Cc1ccc(NC(=O)NCC2CCN(Cc3cccc(Cl)c3)CC2)c(Cl)c1	-28.5
Cc1ccc(-c2nnc(CSc3nnc(COc4cccc5ccccc45)n3-c3ccccc3)o2)cc1	5.64
Cn1cc(C(=O)N2CCN(c3cccc(Cl)c3)CC2)c(=O)c2cc(S(=O)(=O)N3CCOCC3)ccc21	10.9
CCN1CCN(C(c2cc3cc4c(cc3[nH]c2=O)OCO4)c2nnnn2C(C)(C)CC)CC1 (centres unmarked)	9.84
COc1cc(OC)cc(C(=O)NCc2n[nH]c(=S)n2-c2ccccc2)c1	12.3
CCOc1ccc(-c2noc(COC)n2)cc1OC	5.48
CC(NC(=S)Nc1ccc(F)cc1)c1ccccc1 (centres unmarked)	12.4
C=CCc1ccccc1OCC(O)CN(CC)CC.Cl (centres unmarked)	-0.033

Structure (SMILES)	hERG current change (%, negative = inhibition) at 1uM [%]
COc1ccc(S(=O)(=O)N2CCC(C(=O)Nc3nnc(CCN4CCCCC4)s3)CC2)cc1	5.66
CCN(CC)CC(=O)Nc1ccc2c(c1)Nc1ccccc1CC2.Cl	2.56
O=C(CSCc1cccc(Br)c1)N/N=C/c1ccc2c(c1)OCO2	-2.15
O=C(N/N=C/c1ccc(O)c(O)c1)NC12CC3CC(CC(C3)C1)C2	7.25
Cc1ccc2nsnc2c1S(=O)(=O)N1CCOCC1	5.91
Cc1ccc(N=C2NC(=O)/C(=C/c3cccnc3)S2)c(C)c1	2.8
Cc1onc(-c2ccccc2Cl)c1C(=O)OCC(=O)Nc1ccc2c(c1)OCO2	4.87
CCc1ccc(OCC(=O)N/N=C2\CC(=O)c3ccccc32)cc1	0.725
CN1C(=O)N2CN(C3CCCCC3)CN3C(=O)N(C)C1C23 (centres unmarked)	12.3
Cc1ccc(NC(=S)NCc2ccc3c(c2)cc(C)n3C)c(C)c1	15.1
Cc1cccc(-n2ncc3c(NCc4ccccc4)ncnc32)c1	13.7
O=C(NC(=S)Nc1ccccc1N1CCCC1)c1ccc(-c2cccc([N+](=O)[O-])c2)o1	4.38
COc1ccc(NC(=O)NCC(C)CSc2ccc(C)cc2)c(OC)c1 (centres unmarked)	10.3
CCOC(=O)COc1ccc(-c2nnc(-c3ccccc3)o2)cc1	5.38
Cc1cc(Br)ccc1OCCN1CC(C)OC(C)C1.O=C(O)C(=O)O (centres unmarked)	0.357
CC1NCCC2(O)CCCCC12 (centres unmarked)	-0.491
CSc1ccc(Cl)c(C(=O)OCC(=O)N2CCOCC2)c1	9.24
CCCc1c(O)nc(SCCN(CCC)CCC)[nH]c1=O.Cl	-0.2
C/C(=N\OC(=O)c1ccc(F)cc1)c1sc(-c2ccccc2)nc1C	8.62
CSc1nnc(SCC(=O)Nc2ccc3[nH]c(=O)[nH]c3c2)s1	11.2
Cc1ccc(C)c(NS(=O)(=O)c2c(C)nc3sccn3c2=O)c1	8.02
O=[N+]([O-])c1ccc2c(c1)C(N1CCOCC1)/C(=C/COc1ccc(F)cc1)O2 (centres unmarked)	7.51
CC(C)CNC(=O)COc1cccc(C(=O)NCc2ccccc2)c1	11

Structure (SMILES)	hERG current change (%, negative = inhibition) at 1uM [%]
CN(C)S(=O)(=O)N1CCN(C(=O)N2CCOCC2)CC1	10.2
CCCc1c(C(=O)N/N=C(\C)CCc2ccc(OC)cc2)nnn1-c1nonc1N	15.2
COc1cccc2c1O/C(=N\O)C(C(=O)Nc1cccc(Br)c1)C2 (centres unmarked)	13
C/C(Cn1nnc2ccccc21)=N\OC(=O)c1cc(F)c(F)cc1Cl	-48.4
Cc1ccc(NC(=O)c2cc(C)nc3ccccc23)cc1	13
CCCCN(CC)Cc1c(O)ccc2c3c(c(=O)oc12)CCC3	12.7
N#Cc1c(Cl)c(Cl)c2nnc(-c3ccc(Br)cc3)n2c1Cl	-7.42
O=C1CN(C(=O)c2ccc(Br)o2)C(c2ccccc2)c2cc(F)ccc2N1 (centres unmarked)	-2.93
O=C1OCc2cc(-n3cccc3)ccc21	2.04
Nc1nncn1C(=O)CCCOc1ccccc1	13.7
O=c1[nH]c(=O)n(Cc2ccccc2)c(O)c1C=Nc1ccc(CN2CCOCC2)cc1	8.48
CC/C(=N\O)c1ccc(OC)c(OC)c1	17.6
Cc1ccc(-c2nc(NCCN(C)C)c3ccccc3n2)cc1	-1.07
O=C(NCCCn1ccnc1)c1nc(Cn2ccc([N+](=O)[O-])n2)no1	16
Fc1ccc(COc2ccc3ccccc3c2CNc2nn[nH]n2)cc1	11
O=C(CC1SC(=NCC2CCCO2)NC1=O)Nc1cccc2ccccc12 (centres unmarked)	-7.94
CCOC(=O)NC(NC(=O)OCC)C(=O)c1ccccc1	0.77
CCOc1ccc(S(=O)(=O)c2c[nH]c3ccc(C)cc3c2=O)cc1	17
CCOC(=O)CCSc1nc(N2CCOCC2)c2c(c1C#N)CC(C)(C)OC2	-14.1
CC(C)(C)n1nnnc1C(c1ccc(C(F)(F)F)cc1)N(Cc1ccc(F)cc1)Cc1ccco1 (centres unmarked)	11.7
CC(NC(=O)COc1ccc(-c2nnco2)cc1)c1ccc(Cl)cc1Cl (centres unmarked)	3.25
COc1ccccc1CNC(=O)COc1cccc(-n2cnnn2)c1	7.09
COc1cc(C(=O)NCCC(C)C)ccc1OCc1ccc(Cl)cc1Cl	7.87

Structure (SMILES)	hERG current change (%, negative = inhibition) at 1uM [%]
CCCCCCn1c(N2CCC(C)CC2)nc2c1c(=O)[nH]c(=O)n2C	0.341
Cc1ccc(N/C=C/C(=O)C(C)(C)C)c(O)c1	2.33
O=C(Cc1cccs1)N1CCN(c2ccc([N+](=O)[O-])cc2)CC1	-33
COc1ccc(CNC(=O)C2CCN(S(=O)(=O)N3CCC4(CC3)OCCO4)CC2)c(OC)c1	12
CC(Cc1nnc(SCC(=O)O)n1N)c1ccccc1 (centres unmarked)	13.9
O=C(c1ccccc1)c1ccc(OC(=O)C2CCCCC2)cc1	14
COc1ccccc1NC(=S)NCCc1ccc(Cl)cc1	13.5
COc1cc(OC)cc(C(=O)NC2CCN(CCCOc3ccccc3)CC2)c1	-41.2
CC1=C(C(=O)Nc2ccccc2)C(c2ccncc2)C(C#N)=C(SCC(=O)Nc2ccccc2)N1 (centres unmarked)	3.98
CC1(C)CN=C(NCc2ccccc2)S1	11.7
CCCCn1c(C(C)NC(=O)CCC)nc2ccccc21 (centres unmarked)	14.3
O=C(CCS(=O)(=O)c1ccccc1)Nc1nc2cc3c(cc2s1)OCCO3	7.21
O=C(Nc1nnc(-c2ccc(Cl)cc2)o1)Nc1ccccc1Cl	10.1
Cc1ccc(S(=O)(=O)N[C@H](C(=O)N2CCC(C(=O)NCC(=O)O)CC2)C(C)C)cc1	17.5
Cc1cccc(Oc2ccc(Cl)cc2N)c1	16.8
CC(C)Cn1c(N)c(C(=O)CSc2nccn2C)c(=O)n(C)c1=O	8.51
CCOC(=O)c1cc2c(ccn2C)n1CC(=O)N(Cc1ccccc1)c1ccc(F)cc1	5.88
Cc1cc(OCCOCCN2CCCC2)ccc1C(C)C	-22.6
CS(=O)(=O)N1CCC(C(=O)Nc2cccc(Cl)c2Cl)CC1	13.7
CCCCCNC(=O)c1ccc2c(=O)n(CCCOCC)c(=S)[nH]c2c1	7.15
CN(C)c1ccc(/C=N/NC(=O)c2ccco2)cc1	13.9
COc1ccccc1CC(=O)Nc1cccc(C)n1	14.5
C/C(CCc1ccc2c(c1)OCO2)=N\N=C1\NC(=O)CC(C(=O)Nc2ccc(Cl)cc2)S1 (centres unmarked)	2.56

From PMC4336329 (PLoS ONE, 2015)
